The record followed here is ChEMBL document CHEMBL4888484, “Replenishing the malaria drug discovery pipeline: Screening and hit evaluation of the MMV Hit Generation Library 1 (HGL1) against asexual blood stage Plasmodium falciparum ,using a nano luciferase reporter read-out” (2022).

Screen size: about 4,800 compounds; about 420 (8.8%) showed an effect of 50% or more. Some of the results follow.

This test deals with Plasmodium falciparum. Briefly: Confirmatory screen in NF54 nanoGlo assay, in single point, at 2uM, 72h. Format: functional, Erythrocyte. The conditions noted are these: timepoint 72 hour.
For orientation: % Inhibition means the drop in the measured response relative to a control, in per cent. On to `Cn1c(CN2CCN(c3ccccc3)CC2)c(C#N)c2ccccc21`, for which the “% Inhibition” value is -9%. Regarding `Cc1c(-c2nn(-c3nc(C4CC4)cc(C(F)(F)F)n3)c(-c3cnn(C)c3C)c2Cl)cnn1C`, the “% Inhibition” value was found to be 69%.

Take `Cc1ccc(NC(=O)c2cc[nH]n2)c(C)c1`: the “% Inhibition” value was -18%. Turning to `Nc1nonc1C(=O)N1CCN(C(=O)Nc2ccc3c(c2)OCO3)CC1`, the “% Inhibition” value was -9%. Next, `Cc1nc(C(=O)Nc2[nH]c(=O)ncc2F)c(-c2ccccc2)o1`: 85%. Next, `CCn1nc(-n2cnnc2)c(NS(=O)(=O)c2ccc(Br)cc2C)c1C`: 2%. Next, `COc1ccccc1NC(=O)CC1CS(=O)(=O)CC1CC(=O)Nc1ccccc1OC` (stereo not drawn): 1%. On to `Cn1ccnc1CN1CCC[C@@](O)(CNS(=O)(=O)c2cccs2)CC1`, for which the “% Inhibition” value was -10%. Next, `O=C(N[C@@H](CCO)c1ccco1)c1cc(Cn2cccn2)on1`: -16%.

Turning to `COc1ccc(CNC(=O)[C@H]2CN(C(=O)c3ccncc3)CC23CCCCC3)c(OC)c1`, the “% Inhibition” value was -11%. Next, `c1ccc2cc(-c3ccc4ccccc4n3)ccc2c1`: -1%; `Cc1ccc(S(=O)(=O)C[C@H](CN2CCN(C)CC2)N2CCN(C)CC2)cc1`: -6%; `CCC(CC)(NCC(=O)NC1CC1)c1ccc(Cl)cc1`: -12%. On to `CC(=O)N1CCc2cc(NS(=O)(=O)c3cc(C)ccc3O)ccc21`, for which the “% Inhibition” value is recorded as -12%.

For the molecule `CCc1nn(-c2ccccc2)c(Oc2ccccc2)c1CN(C[C@H]1CCCO1)C(=O)C(C)C`, the “% Inhibition” value is listed as -2%. Next, `CN(C)Cc1cn(C[C@H]2C[C@@H](NC(=O)Nc3ccc4c(c3)OCCO4)[C@H](O)[C@@H]2O)nn1`: 0%; `O=S(=O)(c1ccc(Br)cc1)N1CCOC12CCCCC2`: -7%; `Cn1cc(NC(=O)C(=O)NCC2(c3ccc(F)cc3F)CC2)cn1`: 1%. As to `Clc1ccc(NC2(c3noc([C@@H]4CCCCO4)n3)CCC2)cc1`, the “% Inhibition” value is listed as 5%.

As to `CCc1c[nH]c(CNC(=O)C2(C(=O)NC3CC3)CCC2)n1`, the “% Inhibition” value came out at 5%.

In the case of `CC(=O)N[C@H](C(=O)N1CCCC1)C(C)C`, the “% Inhibition” value was -4%.

As for `N#CC1(NC(=O)c2ccncc2Cl)CCCC1`, the “% Inhibition” value is on record as 9%. Next, `CCCc1cc(-c2nc(-c3ccc(-n4nc(C)cc4N)cc3)no2)n(C)n1`: 48%. Next, `CC(=O)c1cc(-c2cc(O)cc(CC[C@H]3CCCCN3)c2)ccc1O`: 78%.

In the case of `C=CCOc1cc(C(=O)N2CCCCC2)cc2occc12`, the “% Inhibition” value is recorded as -4%. As to `O=C(NOCc1ccc(F)cc1)NC1CCCCC1`, the “% Inhibition” value is -5%.

With `Cc1ncsc1COC(=O)c1ccnc(N(C)C)c1`, the “% Inhibition” value was -1%. Next, `CC1CCC(N2CC(C(=O)N(C3CC3)C(C)C(C)C)CC2=O)CC1` (stereo not drawn): 0%. Take `O=C(N[C@@H]1CN(Cc2ccccn2)CCC[C@H]1O)c1ccc(OCc2ccccc2)cc1`: the “% Inhibition” value was 30%. Next, `Cc1cc(=O)n2ncc(C(=O)N3CCN(c4ccc(Cl)cc4)CC3)c2[nH]1`: -9%; `COC[C@H]1[C@H](NC(=O)c2ncc(F)cc2F)[C@H]2CCO[C@H]21`: -5%; `Cc1cc(C)n(S(=O)(=O)c2cccc3cccnc23)n1`: -8%. Next, `Cc1ccc(C2C(C(=O)N3CCC(C)CC3)CCC(=O)N2C)cc1` (stereo not drawn): -3%; `C[C@@H](CC(=O)O)N(C(N)=O)c1ccc(Nc2ccccc2)cc1`: 4%; `COc1cc(Cl)cc2c1OC=CC(C(=O)Nc1ncc(Cc3ccccc3)s1)=C2`: -4%. `Brc1ccc(Oc2ncc(CN3CCOCC3)s2)cc1`: the “% Inhibition” value is -2%. Next, `O=C(COc1ccccc1Cl)Nc1ccc(C2(c3ccc(NC(=O)COc4ccccc4Cl)cc3)c3ccccc3-c3ccccc32)cc1`: 0%; `CCc1nnc(NC(=O)C2CC2c2ccccc2)s1` (stereo not drawn): -3%. Next, `Cc1ccc(C)c(N2CCN(c3ncc4c(=O)n(-c5ccc6c(c5)OCO6)c(=O)[nH]c4n3)CC2)c1`: 2%; `N#Cc1cncc(N2CCc3ccccc3C2)n1`: -1%. Next, `O[C@](C#CCN1CCOCC1)(c1ccccc1)C1CC1`: 8%.

As to `COC1(CNC(=O)C[C@H](O)c2ccccc2)CCC1`, the “% Inhibition” value is listed as -7%.

For `O=C(c1ccc(Cl)c(Cl)c1)C1CCN(C(=O)[C@H]2CCn3cncc3C2)CC1`, the “% Inhibition” value came out at 0%. Next, `C[C@H](C(=O)NCc1cc(F)cc(F)c1)C1CCOCC1`: -5%; `CCn1cc([C@@H](O)C(F)(F)F)c(C)n1`: -4%.

Regarding `C[C@@H](c1ccccn1)N1CCC2(CCCCC2)CC1`, the “% Inhibition” value is recorded as -8%. Next, `COc1ccc2c(/C=C/c3cc[n+](C)cc3)cn(Cc3ccccc3)c2c1`: 35%; `O=S1(=O)N=C(NC[C@@H](O)Cc2ccccc2)c2ccccc21`: 8%; `Cc1nn(CC(=O)NC2CC3CCC(C2)N3C)c2nc(C3CC3)cc(C(F)(F)F)c12` (stereo not drawn): 3%. Next, `CCCc1ccc(OCCNC(=O)C2CCCC2)cc1`: 0%. With `Cc1noc(C)c1CC(=O)N1C[C@H]2CCCC(=O)N(Cc3ccccc3)[C@H]2C1`, the “% Inhibition” value is recorded as -3%. `CCOC(=O)N(c1ccccc1)[C@H]1CC(=O)N(c2ccccc2)C1=O`: the “% Inhibition” value was found to be 1%.

Regarding `CCCOC(=O)Nc1ccc(Br)cc1Br`, the “% Inhibition” value is reported as -2%. On to `Cc1noc2ncc(C(=O)N3CCC[C@@H]3CC(C)(C)C)cc12`, for which the “% Inhibition” value is listed as -4%. Next, `CCc1cc(C(=O)NCc2cn(C)nc2C)c2c(C3CC3)nn(-c3ccc(F)cc3)c2n1`: 3%. Next, `Cc1ccc(-c2n[nH]c(NC(=O)Nc3ccc(F)c(S(=O)(=O)NC4CC4)c3)c2C)o1`: -9%; `CS(=O)(=O)N[C@H]1C[C@@H]2C[C@H]1N(C(=O)NCc1cccc(F)c1)C2`: 6%; `N#Cc1nccnc1NCCCCN1C(=O)c2ccccc2C1=O`: -11%. Regarding `CCOc1ccc(C(=O)N2CCN(c3nnc4ccccn34)CC2)cc1`, the “% Inhibition” value is reported as -1%.

As for `CCc1cc(C(=O)N(CC)c2ccccc2)c2c(C)noc2n1`, the “% Inhibition” value is -7%. Next, `COc1ccc(Cl)cc1S(=O)(=O)c1cnc(N2CCOCC2)nc1N`: -2%; `O=C(NCc1ccc2c(c1)OCO2)C(F)(F)C(F)(F)C(F)(F)C(F)(F)C(=O)NCc1ccc2c(c1)OCO2`: -10%; `CCCC1(CNC(=O)Nc2nc(CS(C)(=O)=O)no2)CC1`: -5%. In the case of `Nc1n[nH]c2ccc(C3OCCCO3)cc12`, the “% Inhibition” value is 2%. Next, `O=C(Cn1cnc2cc3c(cc21)OCCCO3)Nc1ccc(F)cc1`: 7%; `Cn1cc(-c2noc(-c3ccc(C#N)cc3)n2)ccc1=O`: 1%; `Cc1ccc(C(=O)C[n+]2cc(-c3ccc(-c4ccccc4)cc3)n(C)c2N)cc1`: 4%. For `CCCN(Cc1cnn(C)c1)C(=O)NCc1ccc(C)nc1OC`, the “% Inhibition” value was -12%. Consider `Cc1cc(C)cc(NC(=O)Cc2nc(C)c(C(=O)NCc3ccccc3)s2)c1`, for which the “% Inhibition” value stood at 0%. For `Cc1cc(Cl)ccc1S(=O)(=O)N[C@@H](C)C#N`, the “% Inhibition” value is 0%.

Regarding `COc1ccccc1CC(=O)NC[C@H](C)O`, the “% Inhibition” value turned out to be 5%. For `Cc1ccc2c(-c3ccccc3)c(-c3nnnn3-c3ccccc3)cnc2c1`, the “% Inhibition” value was -20%. Next, `O=C(NCCOc1cccc(F)c1)c1cccnc1NC1CCCC1`: 6%. Regarding `Cc1cccc(Oc2cc(N)cc(Oc3cccc(C)c3)c2)c1`, the “% Inhibition” value came to 1%.

As to `CN1CCc2ncnc(Nc3ccc4nc(N5CCCC5)sc4c3)c2C1`, the “% Inhibition” value came out at 2%. As for `CCn1nccc1CN(C)C(=O)c1cc(C)c(C)s1`, the “% Inhibition” value is on record as 5%.

Regarding `CCOC(=O)c1c(C(F)(F)F)[nH]n2c(C(F)F)nnc12`, the “% Inhibition” value is -3%. Next, `Cc1[nH]n(-c2nc(C(F)(F)F)cc(=O)[nH]2)c(=O)c1CCO`: -17%; `COc1cccc(CNC(=O)Nc2cc3c(cc2N2CCCCC2)n(C)c(=O)n3C)c1`: -8%. Next, `N#Cc1cccc(-c2n[nH]c3c2CN(c2ccc(-c4ccccc4)nn2)CC3)c1`: 85%. Next, `CCC1CCCCC1N1CCC(NC(=O)C2CCOCC2)CC1` (stereo not drawn): -13%; `O=C(Nc1nccnc1C(=O)O)c1ccc(Cl)cc1`: 4%; `Cc1nn(Cn2cc(NC(=O)c3ccc(COc4ccc(F)cc4F)o3)cn2)c(C)c1Cl`: -6%. For the molecule `O=C(NC1CCCC1)c1cnn2c3c(cnc12)CCCCCC3`, the “% Inhibition” value came to 0%. As to `O=C(N[C@@H](N1CCCCC1)C(Cl)(Cl)Cl)c1cccnc1`, the “% Inhibition” value was determined as 2%. Next, `CCc1ncoc1C(=O)NCC(F)(F)c1cc(F)cc(F)c1`: -10%. Next, `O=C(NCc1cccc(Cl)c1)[C@H]1CCCN(c2nc3cccnc3n(Cc3ccccc3)c2=O)C1`: -6%.

For `COc1cc(CC2CN(C(=O)c3cscn3)C2)cc(OC)c1`, the “% Inhibition” value is given as -6%. Next, `N#Cc1cc(C(=O)Nc2nccc3sccc23)c[nH]1`: -12%; `N#Cc1ccc(O)c(NC(=O)c2snc(O)c2Cl)c1`: -7%.

As to `COc1cc(N)c(NC(C)=O)cc1Cl`, the “% Inhibition” value is listed as -1%.

`COc1ccc(S(=O)(=O)N(c2onc(C)c2Cl)S(=O)(=O)c2ccc(OC)c(OC)c2)cc1OC`: the “% Inhibition” value is reported as -3%.

On to `Cc1c(-c2cc(-c3cnn(C)c3C)n(CC(=O)NC3CCCCC3)n2)cnn1C`, for which the “% Inhibition” value is 5%. As to `O=C(Nc1cccc(Cl)c1)c1ccc(-c2cnc(N3CCCC3)nc2)cc1`, the “% Inhibition” value is on record as -1%. Take `C[C@H](OC1CCCCCC1)C(=O)Nc1nc(C(N)=O)cs1`: the “% Inhibition” value is -20%.

In the case of `COc1ccccc1N1C(=O)C2C(C)NC3(C(=O)N(Cc4ccc(F)cc4)c4ccccc43)C2C1=O` (stereo not drawn), the “% Inhibition” value came to 11%. Next, `Cc1ccc(-c2noc(CCC(=O)NCC(C)C)n2)c(=O)n1C(C)C`: -2%; `O=S(=O)(c1ccc(CC(F)(F)F)cc1)N1CCOCC12CCC2`: -5%; `CC(N)C1CCN(c2cncc(OCC3CCCC3)n2)C1` (stereo not drawn): -1%.

Regarding `CCn1nccc1C(=O)NC1CCN(c2nnc3ccc(Cl)cn23)CC1`, the “% Inhibition” value was 0%. Next, `Oc1ccc2ccccc2c1-c1nc2ncccn2c1Nc1ccc(Cl)cc1`: 6%; `COc1ccc(C)cc1NC(=O)[C@H]1CCCN(c2cn[nH]c(=O)c2)C1`: -12%. Next, `O=C(Nc1ccccc1-c1nnc[nH]1)c1ccc(F)c(Cl)c1`: -3%.
